In all, about 33,000 sequences were measured (“E-score (-0.5 to 0.5)”: median about -0.012, highest 2% from about 0.29 on). The list shows a part of the results.
Target: T1, Ybr033w (UniProt P38073)
T1 sequence: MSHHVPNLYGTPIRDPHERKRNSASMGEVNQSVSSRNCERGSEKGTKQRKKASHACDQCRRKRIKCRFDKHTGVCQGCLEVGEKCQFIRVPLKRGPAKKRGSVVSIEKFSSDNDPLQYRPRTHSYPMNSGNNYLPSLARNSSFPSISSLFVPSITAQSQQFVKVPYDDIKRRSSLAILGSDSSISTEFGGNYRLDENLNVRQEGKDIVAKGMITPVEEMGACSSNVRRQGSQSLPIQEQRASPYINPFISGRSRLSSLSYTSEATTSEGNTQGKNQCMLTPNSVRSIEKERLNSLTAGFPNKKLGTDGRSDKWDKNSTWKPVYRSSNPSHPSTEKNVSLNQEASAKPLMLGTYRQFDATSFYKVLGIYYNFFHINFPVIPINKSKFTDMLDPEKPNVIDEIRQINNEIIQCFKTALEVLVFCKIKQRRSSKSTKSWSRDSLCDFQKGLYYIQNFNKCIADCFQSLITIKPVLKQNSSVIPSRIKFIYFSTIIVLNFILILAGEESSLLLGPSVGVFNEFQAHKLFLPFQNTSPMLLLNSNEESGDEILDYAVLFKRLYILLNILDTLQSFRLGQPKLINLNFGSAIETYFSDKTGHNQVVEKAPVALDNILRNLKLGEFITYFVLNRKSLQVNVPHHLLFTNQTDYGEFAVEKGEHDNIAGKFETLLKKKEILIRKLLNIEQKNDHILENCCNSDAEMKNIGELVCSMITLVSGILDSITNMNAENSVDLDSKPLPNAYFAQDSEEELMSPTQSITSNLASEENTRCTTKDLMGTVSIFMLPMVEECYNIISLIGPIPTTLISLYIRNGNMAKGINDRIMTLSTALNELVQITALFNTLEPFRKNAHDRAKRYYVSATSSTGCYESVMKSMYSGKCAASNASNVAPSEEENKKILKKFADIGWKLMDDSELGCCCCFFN
Assay: PBM E-score (8-mer binding enrichment) (E-score (-0.5 to 0.5)); higher = stronger / more preferred TF binding; most listed sequences are background and not binding sites
Details: protein concentration: 200 nM; construct: GST-full length
How it was run: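 PURExpress in vitro transcription/translation supplied GST-tagged yeast transcription factors, either full-length or DNA-binding domain. Applied at about 100-200 nM to universal all-10-mer Agilent arrays double-stranded by primer extension, the bound protein was detected with fluorescent anti-GST. E-scores, modified Wilcoxon-Mann-Whitney statistics, were given by the Universal PBM Analysis Suite to ungapped eight-base words pooled with their reverse complements after masliner normalisation.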

Sequence	PBM E-score
CGAGGTGC	0.0309
AACGGAGT	0.17
ACGTAAGC	-0.0026
CGAAATAC	0.216
GTTGCGTA	0.0664
AAGCTATA	0.0695
CAAGGGTC	-0.0781
GGCTCTAA	0.0469
AGCAAATA	0.175
CAGCCATG	-0.186
CCCGCTTA	-0.0644
GCAGCTCC	-0.21
AGGTCAAG	-0.164
CGTAACGC	-0.0436
CTTTTATC	0.232
GAAACTCC	-0.0705
CTTGTCCC	-0.107
ATTTCGAA	0.203
GGTGAAAC	-0.0036
AGTAAGAC	-0.00585
ACATGACC	-0.186
GTACGAGA	0.0385
TCAGATCA	-0.0206
GGTTAAGA	0.0725
ACGCAGAG	-0.047

Sequence	PBM E-score
CAGGCGAC	-0.244
AATGCTAA	0.134
GGCGATTA	-0.0414
AGCAAAGG	-0.0121
AGTGTGGG	-0.0564
CCCACCGA	-0.0552
GGCAGATA	-0.0416
GCCGTCGC	-0.0905
CTATCTGA	-0.0868
CAGGTCAC	-0.329
CGATTTCC	0.00799
TAATCTGA	0.227
ACGCTTTA	-0.0983
GTCCCACA	0.0224
AGTAACTC	0.103
ATGTGCTA	0.208
AACTTGAG	-0.167
CGACCATC	-0.151
CATCCACA	0.139
GGACAGGA	-0.146
ACGCTAAG	-0.00684
ATCACGAT	-0.0335
GTAGTACA	0.0863
GTGTGAAA	0.082
ATCGAAGG	0.133

Sequence	PBM E-score
ATAAAGAA	0.291
ACTATTAG	0.111
CATGTAAA	0.129
ACTCCGAA	0.0874
AAAAGGTA	0.0903
AATACCAT	0.207
GGAAGACA	-0.156
TAGTCATA	0.109
TACCCGGA	0.153
CCGAGTCA	-0.0886
GATAAAAC	0.323
AGTCAGCC	-0.243
CCAATGGC	-0.0826
CACCAAAA	0.169
AGGAGTGG	-0.224
CACTAGGC	0.0497
ACCAGGGC	-0.217
ATCGGTAG	-0.0973
TAAGGGCA	-0.0146
CAATCATA	0.235
TCTGGTCA	0.0139
ATTCAAGC	0.221
ACTACGGA	-0.0746
AACACTGC	0.14
GTGCTGTA	-0.0114

Sequence	PBM E-score
CGCTTGTC	-0.108
GAGACCGC	-0.201
CATGAATC	-0.0342
CCAGCATC	-0.129
AATCGTAA	0.127
CTACCCCA	-0.102
ACCGCTCT	-0.201
AGCAGCGG	-0.284
CTGATCTA	-0.016
CCCGGTCG	-0.214
ATGGCTCC	-0.115
AAACGTTC	0.0667
CAGCAACG	0.25
GGACGACC	-0.35
AGCTGAGA	0.0476
AGCTAGAA	-0.106
AAATTGCC	0.145
TAAAGTTA	0.358
GAGGCTCC	-0.0793
CCGCGACC	-0.312
ATAGTTTG	0.173
AAGTTCCA	0.071
CAAGGGCC	-0.343
AGCCACGC	-0.147
CAAATGAA	0.105

Sequence	PBM E-score
TCCCCCCA	-0.219
CCCGCAGA	-0.114
ATGCGAGG	0.0583
GCGGTTTA	0.0281
ATGCGATA	0.0197
AATCCTAG	-0.00295
GCCTTGAA	-0.134
TCTACACA	0.0567
AAAACCCC	-0.16
CCACGCAG	-0.0756
GCGAACCA	0.129
ATGAAAGG	0.105
AAAGATGC	0.0969
ATACCGAT	-0.0135
TAAGAAGA	0.181
TACCTTGA	0.0473
AATTATAA	0.253
CGACTCCC	-0.0642
ACCATACT	0.163
AGTATGGG	-0.00901
AAATAGGC	0.0382
ATGTCAAG	0.0775
CTAATAGC	0.0371
CCCAAATA	-0.0463
TAAATGGA	0.227

Sequence	PBM E-score
GAAGACCC	-0.0177
GTATAAAC	0.158
AAGTGCGC	0.0294
GAGGCGCA	-0.122
GGAGCCTA	-0.159
CATAAGAA	0.239
CGAGCTAC	0.00404
AGGTTGCG	-0.0729
TACGGTCA	-0.106
ACCGTTGC	-0.199
TCGCGGCA	-0.0938
CACGACTG	-0.175
CCTACGGC	-0.162
ATGCGATC	-0.069
AAACATAC	0.0502
AGTCCTAC	0.0159
GATCATAA	0.144
GGAGGTCA	-0.151
AGGACCAT	-0.165
CATTAATC	0.252
AGATACAT	0.0853
TCACGGGA	-0.0099
TGCGCCCA	-0.216
TGACAAAA	0.193
ACCCCTCA	-0.21

Sequence	PBM E-score
GGAAAGTA	0.0884
AACTGTGA	-0.00839
CCCGTCAG	-0.245
CAGCTTAA	0.0823
GAACCTGA	-0.00273
ACACGACT	0.0367
ACCTTCGA	0.0304
GGACAACA	-0.128
CATCGCAA	-0.102
CATGACAG	0.0177
ATACATAG	0.0778
CTACGCGA	-0.0526
ATAAAACC	0.0831
AACTTCAA	0.193
GTGAAATA	0.19
ATAAGAGA	0.179
GGACACCC	-0.298
ACGAAAGT	0.00157
AAATGAGT	0.185
GCAAGCGC	-0.00847
AACCAATC	0.133
TGGACCCA	-0.122
AAGCGAGC	0.0259
AACGTCCC	-0.166
TAAGCCCA	0.0539

Sequence	PBM E-score
AAAGGAGC	-0.0899
CACGCTAC	-0.244
GAAGTACA	0.0302
CGATCGCC	-0.139
CCAGCTAC	-0.0708
GAACCTCA	-0.156
ACTGGTGG	-0.0618
GGGTCGGA	-0.25
CTATTACA	0.135
AAGGGTCC	-0.163
CGAGTGTC	-0.227
GTGGACAA	0.14
AGCGCCTA	-0.167
CAGCTTTA	0.0931
CGGGTGTC	-0.164
ACTAGCCA	0.0538
AAGACTCC	-0.106
AAACTTGG	-0.0434
ATAGCCTC	-0.163
TGTCAACA	0.0334
GGGTTTCA	0.0387
GCCGGATA	0.156
CGCGCTAC	0.0437
GGTCCCGA	-0.145
CAGACAAC	0.0268

Sequence	PBM E-score
ATGTAACC	-0.169
CCTACTGA	0.00716
CTCTTTCC	-0.171
ACACGGAG	-0.0714
ACTCGGTG	-0.0597
GCACCGTA	-0.103
AGTTCCGG	0.0928
AACTACAA	0.257
GCCTTACC	-0.347
TGAGTCCA	-0.0716
GAAGCCTC	-0.254
AATGATGT	0.17
GGTGCGGA	-0.0249
AGACTCAT	-0.00715
TAGACATA	0.144
ACTCAGAG	-0.0221
ATTCGGAA	0.269
ACGAACCT	0.0105
CGCACAAA	0.165

Source: the supplement of paper PMC3334620
